# Measured values published in PubChem BioAssay AID1768 (National Center for Advancing Translational Sciences (NCATS), 2009).
# The campaign covered roughly 270,000 compounds. About 620 (0.23%) were called active. The shares of active, inactive and inconclusive entries below differ from those in the screen. Calls follow the shape of the dose curve; as a rule, active = well fitted inhibition curve with a large enough effect in the polarisation, with a control signal flat (not every such curve was filed as active); inconclusive = small, poorly fitted or top-dose-only effect, or effect the other way, or a change in a side signal; inactive = no such curve, though single readings can be large or run the other way; the % refers to the polarisation. Potencies of inconclusive entries are doubtful fits and often do not repeat. “Side channel” marks fits to a control or component signal instead of the main read-out.
# Target: Menin (Homo sapiens) (UniProt O00255)
# UniProt O00255, sequence (O00255 whole entry, looked up): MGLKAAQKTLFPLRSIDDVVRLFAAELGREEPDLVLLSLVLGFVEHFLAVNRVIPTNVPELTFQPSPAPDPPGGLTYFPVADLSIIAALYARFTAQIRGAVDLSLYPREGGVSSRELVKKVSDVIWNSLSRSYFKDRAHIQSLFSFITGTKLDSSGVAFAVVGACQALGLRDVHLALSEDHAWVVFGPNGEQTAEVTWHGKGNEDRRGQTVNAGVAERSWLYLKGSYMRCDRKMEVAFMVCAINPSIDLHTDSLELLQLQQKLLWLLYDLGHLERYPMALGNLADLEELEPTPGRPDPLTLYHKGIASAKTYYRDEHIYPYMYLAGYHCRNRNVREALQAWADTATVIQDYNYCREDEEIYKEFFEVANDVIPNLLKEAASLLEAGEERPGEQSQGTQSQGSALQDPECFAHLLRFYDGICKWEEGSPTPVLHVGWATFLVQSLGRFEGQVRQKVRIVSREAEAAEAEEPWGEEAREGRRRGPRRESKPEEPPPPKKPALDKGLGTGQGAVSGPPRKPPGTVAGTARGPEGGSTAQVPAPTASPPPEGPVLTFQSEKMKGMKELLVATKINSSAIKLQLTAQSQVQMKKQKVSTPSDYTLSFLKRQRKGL
# Assay: qHTS Assay for Inhibitors Targeting the Menin-MLL Interaction in MLL Related Leukemias: Competition With Texas Red Labeled MLL-derived Mutant Peptide; as to FP activity change, negative = inhibition: % of control where 0% means no effect
# Details: fluorescence polarization; FP activity change, negative = inhibition: at 61.6 µM (top of the series)
# Potency is read from the fitted curve at half-maximal effect; tags tell the direction and shape of the fitted curve or compound fluorescence and quenching.
SMILES,"FP activity change, negative = inhibition",Potency
CCCCn1c(NC(=O)c2ccco2)c(S(=O)(=O)c2ccc(C)cc2)c2nc3ccccc3nc21,inactive: 0.755%,
Cc1cc(C(=O)Nc2nc(-c3ccccn3)cs2)ccc1[N+](=O)[O-],,"inconclusive: 39.8 µM [quencher, side channel, single point]"
Fc1ccccc1COc1ccc2ccccc2c1CNc1nn[nH]n1,,"inconclusive: 35.5 µM [inhibitor, single point]"
COc1ccc(/C=C2\CCn3c2nc2cc(C(=O)O)ccc2c3=O)cc1OC,,"inconclusive: 8.91 µM [inhibitor, full curve]"
COc1ccc(NC(=O)c2oc3ccccc3c2NC(=O)C2CC2)cc1OC,,"inconclusive: 25.1 µM [quencher, side channel, single point]"
O=P1(O)Oc2c(-c3ccccc3)cc3ccccc3c2-c2c(c(-c3ccccc3)cc3ccccc23)O1,,"inconclusive: 25.1 µM [quencher, side channel, single point]"
CCCCCCC1CCC(C(=O)N2CCOCC2)CC1 (stereo not given),,"inconclusive: 10 µM [fluorescent, side channel, partial curve]"
CCC(C)C(NC(=O)C1CCC(C)CC1)C(=O)NCCc1ccc(S(N)(=O)=O)cc1 (stereo not given),,"inconclusive: 35.5 µM [fluorescent, side channel, single point]"
Cc1cccc(CNC(=O)C2CCC(=O)N(CCc3cccc(F)c3)C2)n1 (stereo not given),,"inconclusive: 39.8 µM [inhibitor, single point]"
COC(=O)c1ccc2c(c1)C(C)(C)C(/C=C/c1ccc(O)cc1)=[N+]2C,,"inconclusive: 14.1 µM [fluorescent, side channel, partial curve]"
Cc1[nH]n(-c2ccc([N+](=O)[O-])cc2)c(=O)c1/C=N/N1CCOCC1,inactive: 0.333%,
CCc1ccc(N(CC(=O)Nc2ccc(NC(C)=O)cc2)S(=O)(=O)c2ccccc2)cc1,,"inconclusive: 31.6 µM [quencher, side channel, single point]"
COC(=O)CC1=NN(c2ccccc2)C(=O)/C1=C\c1ccc(OC)cc1,,"inconclusive: 28.2 µM [quencher, side channel, single point]"
C=C1CCC[C@]2(C)C[C@H]3OC(=O)C(CNC(C)(CO)CO)[C@H]3CC12 (stereo not given in full),,"inconclusive: 39.8 µM [inhibitor, single point]"
COc1ccccc1N(C1=NCCCS1)S(=O)(=O)c1ccc(C(C)(C)C)cc1,,"inconclusive: 3.98 µM [fluorescent, side channel, partial curve]"
O=C(COC(=O)c1c2c(nc3ccccc13)/C(=C/c1ccco1)CC2)NC1CCCC1,,"inconclusive: 31.6 µM [quencher, side channel, partial curve]"
COc1cc(NC(=O)CSc2nccc(=O)[nH]2)c(C)cc1[N+](=O)[O-],,"inconclusive: 25.1 µM [quencher, side channel, partial curve]"
COC(=O)[C@H](C)NC(=O)C/C=C\[C@@H](C)[C@@H](CO)OC,inactive: -1.36% [at 11.7 µM],
NS(=O)(=O)c1ccc(Nc2nc(-c3ccccc3)cs2)cc1,,"inconclusive: 12.6 µM [quencher, side channel, partial curve]"
Cc1ccc2oc(C(=O)N3CCC(O)(c4cccc(C(F)(F)F)c4)CC3)c(C)c2c1,,"inconclusive: 35.5 µM [fluorescent, side channel, single point]"

SMILES,"FP activity change, negative = inhibition",Potency
COC1=C/C(=C/c2c(N)n3nc(-c4ccc(C)cc4)sc3nc2=O)C=CC1=O,,"inconclusive: 22.4 µM [quencher, partial curve]"
CCOC(=O)c1ccc(NC(=O)COc2ccc(S(=O)(=O)NC(C)CC)cc2)cc1 (stereo not given),,"inconclusive: 39.8 µM [inhibitor, single point]"
c1nc2sc3c(c2c2nnnn12)CCC3,inactive: 3.41%,
O=C(c1cccc(F)c1)N1CCC2(CC1)CCN(c1ncccn1)CC2,inactive: -9.4%,
COc1ccc(Nc2nc(N3CCCCC3)c3ccccc3n2)cc1,,"inconclusive: 5.01 µM [inhibitor, single point]"
CCc1nnc(NC(=O)c2ccc(Cl)c(S(=O)(=O)N3CCc4ccccc43)c2)s1,,"inconclusive: 20 µM [quencher, side channel, single point]"
O=C(Cc1c[nH]c2ccccc12)OCC(=O)c1ccccc1,,"inconclusive: 35.5 µM [quencher, side channel, partial curve]"
COc1cc(Cl)c(C)cc1NC(=O)Cc1cccs1,,"inconclusive: 39.8 µM [inhibitor, single point]"
COC(=O)c1c(N)sc(Cc2ccccc2)c1C,,"inconclusive: 25.1 µM [quencher, side channel, partial curve]"
COc1cc(O)c(C(CCN2CCOCC2)c2ccc3c(c2)OCO3)c(OC)c1 (stereo not given),,"inconclusive: 0.708 µM [inhibitor, full curve, poor fit]"
COc1cccc(-c2csc(N3CCN(C(=O)Nc4ccc(Cl)cc4)CC3)n2)c1,,"inconclusive: 31.6 µM [quencher, side channel, partial curve]"
Cc1ccc(C)c(S(=O)(=O)Nc2ccccc2C(=O)Nc2cc(C)on2)c1,inactive: -6.04%,
CCC(C)(C)n1nnnc1C(c1ccc(C)cc1)N1CCSCC1 (stereo not given),,"inconclusive: 8.91 µM [fluorescent, side channel, full curve, poor fit]"
Cc1cc(C)nc(SCCCNCc2c(F)cccc2Cl)n1,,"inconclusive: 11.2 µM [inhibitor, single point]"
COc1ccc(-c2cc(N)n(S(=O)(=O)c3ccc(C)cc3)n2)c(OC)c1,,"inconclusive: 28.2 µM [quencher, side channel, single point]"
CC(C)(C)c1nnc2sc(SCC(=O)c3ccc(Cl)cc3)nn2c1=O,,"inconclusive: 14.1 µM [inhibitor, partial curve]"
CCOc1ccc(N2C(=O)CC(Sc3nc(-c4cccs4)cc(C(F)(F)F)c3C#N)C2=O)cc1 (stereo not given),,"inconclusive: 25.1 µM [quencher, side channel, partial curve]"
CCCCC[C@H](O)/C=C/C=C\CCCCCCCC(=O)O,inactive: -1.62%,
O=C(NCc1nnc(SCc2ccc(F)cc2)n1-c1ccccc1)C12CC3CC(CC(C3)C1)C2,,"inconclusive: 8.91 µM [fluorescent, side channel, partial curve]"
COCC(=O)N1CCc2nc(-c3ccc(OC)cc3C)c3c(c2C1)CO[C@@H](c1ccccc1)C3,inactive: -7.14% [at 11.7 µM],

SMILES,"FP activity change, negative = inhibition",Potency
O=C(CC1C(=O)NCCN1CCCc1ccccc1)NCCc1ccccc1F (stereo not given),,"inconclusive: 4.47 µM [inhibitor, full curve]"
COc1cccc(/C=N/Nc2ccc([N+](=O)[O-])cc2)c1O,,"inconclusive: 7.08 µM [quencher, full curve]"
O=C(N/N=C/c1ccc(-c2cccc([N+](=O)[O-])c2)o1)c1cccs1,,"inconclusive: 2.82 µM [quencher, side channel, full curve]"
Cc1ccc(-c2nn(CCC(=O)O)cc2/C=C\C(=O)c2ccc(Br)cc2)cc1,,"inconclusive: 20 µM [quencher, side channel, partial curve]"
Cc1ccccc1C(OCC(O)CN1CCN(CCO)CC1)c1ccccc1 (stereo not given),,"inconclusive: 12.6 µM [inhibitor, partial curve]"
CC(=O)C(=Cc1ccc(C(=O)O)cc1)C(C)=O,inactive: 7.63%,
Nc1nc(SCC(=O)c2ccc(F)cc2)n[nH]1,inactive: -9.78%,
O=S(=O)(Nc1cc(Sc2ncn[nH]2)c(O)c2ccccc12)c1ccccc1,,"inconclusive: 14.1 µM [quencher, side channel, partial curve]"
COc1cccc(CN2CCN(Cc3cccc(Br)c3)CC2)c1OC,,"inconclusive: 14.1 µM [inhibitor, partial curve]"
Cc1c(C)n(CCc2ccccc2)c2ncnc(NCCO)c12,,"inconclusive: 25.1 µM [inhibitor, single point]"
O=C1C2C3C=CC(C3)C2C(=O)N1/N=C/c1cc(Br)cc([N+](=O)[O-])c1O (stereo not given),,"inconclusive: 25.1 µM [quencher, side channel, single point]"
Cn1c(=O)c2[nH]c(N3CCCCC3)nc2n(C)c1=O,,"inconclusive: 39.8 µM [inhibitor, partial curve, poor fit]"
O=c1[nH]c(/C(Cl)=C/c2cc(Cl)ccc2O)nc2cc(Cl)ccc12,,"inconclusive: 20 µM [quencher, side channel, partial curve]"
O=C(c1ccc(F)cc1)N1CCC(n2nnc3ccccc32)CC1,,"inconclusive: 39.8 µM [fluorescent, side channel, single point]"
Cc1ccc(C)c(N2CCN(C(=O)c3ccc4nc(-c5ccco5)c(-c5ccco5)nc4c3)CC2)c1,,"inconclusive: 12.6 µM [quencher, partial curve]"
COc1ccccc1N1CCN(/N=C/c2cccc(O)c2)CC1,inactive: 26.8%,
CCC(CC)c1nnc(NC(=O)C2CCN(C(=O)c3ccco3)CC2)s1,inactive: -19.3%,
CN(C)CCc1cc2c(c3c1ccc1ccccc13)OCO2,,"inconclusive: 14.1 µM [fluorescent, side channel, partial curve]"
CCCN1CCC(=O)N(CCSc2ccc(OC)cc2)CC1,,"inconclusive: 10 µM [inhibitor, partial curve]"
O=C(Nc1ccc(-c2nc3ccccc3s2)c(OC(=O)c2ccccc2)c1)c1ccccc1,,"inconclusive: 31.6 µM [inhibitor, single point]"
